We go through 167 variants from the RNAGym collection of RNA variant scans (doi:10.7554/elife.90254).

B1: LINE1-mini (parent)
chain: GGCAGAGCUCAACACAGCGUGGCAAAGUGGCUGUGGCUAGACUGCC

The source gives no read counts; variants with many changes may rest on few reads.

Variants of B1 are the subject of the data set. Kind of data set: self-cleavage, relative activity (ratio to wild type); higher = more cleavage; in vitro, sequencing; the parent is a self-cleaving ribozyme.
As to C8U A24C A26C U38A C45G, the self-cleavage turned out to be 0.16. Turning to C8U C31G G40A, the self-cleavage came to 0.05. For C8U G29U C31U A41G U43A C45U the value was 0.28; for C8U C13G A16U, 0.13; for C8U C13G G27A G33C G35C C45A, 0.01.

As to C8U G21A G29A U43G G44U, the self-cleavage amounted to 0.08.

As to C8U C10U C23G G27C G40A, the self-cleavage was determined as 0.03. As for C8U A24C U32G, the figure is 0.03; as for C8U U28G G36U, 0.03; as for C8U C10G G21U G27C A39G C42A, 0.01. For C8U G22C U32C G40A U43A the value was 0.08. Take C8U G17U G33A G40U C46G: the self-cleavage is 0.06.

In the case of C8U G33C G44U, the self-cleavage amounted to 0.14. As for C8U C18U G29U, the figure is 0.04; as for C8U C13U C15A G30U, 0.13; as for C8U C15U U38C, 0.18.

As to C8U C10U A11U U32C, the self-cleavage is 0.02.

As for C8U C15A C23A G33U U38G C42G, the self-cleavage was determined as 0.02. Turning to C8U C18A G21U G22A G30A C42U, the self-cleavage was found to be 0.22. As for C8U C13A U28C C45U, the figure is 0.18. As for C8U G30U G44U, the figure is 0.19. For C8U C23A G44U the value was 0.03. As to C8U U28A U38C, the self-cleavage amounted to 0.27.

Take C8U G19C A26C U38A: the self-cleavage came to 0.02.

For the variant C8U U9A A11G, the self-cleavage amounted to 0. For C8U C15A G17A C18U C42A the value was 0.02; for C8U C13A A16G U38C G44C, 0.05. As for C8U G21U G29U C37A A41U C42A, the figure is 0.14; as for C8U C37G G40A, 0.02; as for C8U G21A A24G U28A C42A, 0.7. As for C8U U9C U20A C42G, the figure is 0; as for C8U C13U G27C G36U, 0.81.

Take C8U C18U G40U G44C: the self-cleavage is 0.15. As for U9A A11C C23A, the figure is 0.02. As for C8U U9C G17U G35U, the figure is 0.01; as for C8U G17A G21U A41G, 0.06. As for C8U C15A G33A, the figure is 0.18; as for C8U U20C C31U G40U C45G, 0.1. C8U C13U G27U: the self-cleavage amounted to 0.33.

Take C8U G21U U38A C45U: the self-cleavage came out at 0.04. For C8U C15U G19A G36C the value was 0.09; for C8U G27C G29U A39C, 0.02; for C8U C18G U28A, 0.13. For C8U A25G A41C the value was 0.14. For C8U A25C G33C the value was 0.03; for C8U G21C C46A, 0.78.

Turning to C8U G33C U38A A41U, the self-cleavage worked out at 0.07.

C8U A26G A41C: the self-cleavage was 0.16. As for C8U G40U C46G, the figure is 0.03.

With C8U C10U U28G G36U, the self-cleavage was determined as 0.01. As for C8U G21U C45U, the figure is 0.05. As for U9A A11C U28G G35A, the figure is 0.02; as for C8U U32C C42G, 0.43. As for C8U A24G U28C C46G, the figure is 0.07. With C8U G33A G35C, the self-cleavage was determined as 0.09. Regarding C8U U20A C31U, the self-cleavage came to 0.05.

On to C8U G19A A24U U38A, for which the self-cleavage came out at 0.85. For C8U C15A A16U G35U the value was 0.12; for C8U C15A A25C U28G C45A C46G, 0.1. As for C8U C13U A14U, the figure is 0.26; as for C8U U9G G27U, 0.03; as for C8U C15U U20G A25C G29A, 0.48. For C8U G29U G40U the value was 0.22; for C8U G22U G30A, 1.37. Consider C8U C18U U20C A26C G27U, for which the self-cleavage was determined as 0.03. As for C8U C15G U28G C31U, the figure is 0.09; as for C8U C23A G30C, 0.06. As for C8U C18G G30U G33U U34C G35U G40A C46U, the figure is 0.01. As for C8U G27A G29C G30U A39U U43A, the figure is 0.01.

Consider C8U U20C A24G G40U, for which the self-cleavage is 0.28. For C8U C15U U20A the value was 0.96; for C8U G19A A24G C31A U34G U43A, 0.17; for C8U C31U G40A A41G, 0.28.

For C8U C31G U43G, the self-cleavage is 0.3. As to C8U G22A G36U, the self-cleavage is 0.34. For C8U C13A C15A G17A G27A the value was 0.27. As for C8U C15G G33U C37U U38G, the figure is 0.04; as for C8U A24C G27C A39U U43A, 0.03.

Take C8U G29A C37A: the self-cleavage is 0.06.

Regarding C8U C18G A25G, the self-cleavage turned out to be 0.13. Regarding C8U A39U U43A, the self-cleavage came to 0.01. As for C8U G19A C42A, the figure is 0.1; as for C8U U32A U38G G44U C45G, 0.12.

Take C8U C13U C18G A25G C45G: the self-cleavage is 0.1.

As for C8U C18U G35U G40A, the self-cleavage was 0.65. For C8U A16U C46A the value was 0.14. For C8U A16U C46U the value was 0.06; for C8U C10G C18U G36A, 0.02. C8U G21C C23U: the self-cleavage was 0.09. Take C8U U9C C46A: the self-cleavage was 0.16. As for C8U G36U A41C, the self-cleavage is 0.06. As for C8U U20G G35U C37G, the figure is 0.01. For C8U A39C U43C C46A the value was 0.15; for C8U C10A C18A C45A C46U, 0.03.

Regarding C8U A25U G27C U38G, the self-cleavage is 0.07. As for C8U U20G U34C A39G, the figure is 0.14; as for C8U C15A G33C G35U C45A, 0.26; as for C8U C13A C31U G44A, 0.03. Take C8U U32G G35A C45A: the self-cleavage turned out to be 0.15.

Consider C8U G17A A25U U38G, for which the self-cleavage came to 0.02. As for C8U C23U A26U G33C G36C, the figure is 0.1.

For C8U G22A U32C, the self-cleavage was determined as 1.12. As for C8U C15G G33A, the figure is 0.07; as for C8U C31G U38A, 0.04. As for C8U G29A U34A, the figure is 0.07. As for C8U G29A U34C, the figure is 0.18. With C8U G21A A25G, the self-cleavage was determined as 0.42.

For C8U A16U A26U G27C, the self-cleavage came out at 0.19. As for C8U C10U C15A A25U A26U, the figure is 0.02; as for C8U G29A G36A C37U, 0.1; as for U9A A11C G22U G27U, 0.01. As for C8U U28G A39C, the figure is 0.05; as for U9A A11G A14C G19C G40U G44U, 0.01; as for C8U U9A G17U G30U G33U A39G, 0.6. As for C8U C15U G21U A24U, the figure is 0.18; as for C8U C10A C15G G30A U38G A39U, 0.02; as for C8U C10U C45G, 0.02. Take C8U A24G G27U U28G C31G: the self-cleavage was 0.03. For C8U G33U U43G the value was 0.13. As for C8U C10U C46A, the figure is 0.03. For C8U G21A U28G A41U the value was 0.89. With C8U G22C G30A G40C, the self-cleavage turned out to be 0.06. For C8U G19U C46A, the self-cleavage worked out at 0.29.

Consider U9A A11G G21A A41U, for which the self-cleavage is 0.02. As to C8U C10A C13U, the self-cleavage amounted to 0.09. For C8U C10A C13G the value was 0.06. As to C8U G17A A25C C37U C45U, the self-cleavage was determined as 0.15. C8U U43C G44U: the self-cleavage was 0.13. For C8U A16U G19C G40C U43C the value was 0.02; for U9A A11G A14G C45U, 0.02. Regarding C8U G22U A25U, the self-cleavage came to 1.62.

Consider C8U C10G C13U C31A, for which the self-cleavage came to 0.05. As for C8U G21A G36U U38A C42A, the figure is 0.09. For C8U G19A G21U A25U the value was 0.32.

With C8U G17A G19U G33U C45A, the self-cleavage was determined as 0.05. As for C8U A26U G44U, the figure is 0.74. As for C8U U20C C37G C42U, the figure is 0.01; as for C8U C10A G17A G21U G36C C46G, 0.03. As for C8U C10G G27C G30U, the figure is 0.01. Consider C8U U28G G29U, for which the self-cleavage was determined as 0.08. For C8U A25G G29U U34C the value was 0.05. For C8U C37A G40A the value was 0.08; for C8U C23U G27A, 0.19. As for C8U C15G A16U G33U, the figure is 0; as for C8U C13A G44U, 0.09; as for C8U C31A U34C G40C C46A, 0.1. Take C8U G17A C18A C23U U34A: the self-cleavage is 0.18. For C8U G17A G27U G36C C42U the value was 0.08. Turning to C8U C18U U28C, the self-cleavage was found to be 0.17.

With C8U G30A A39G U43A, the self-cleavage stood at 0.02.

On to C8U U9C G17C G29U, for which the self-cleavage was found to be 0.1. For the variant C8U U9C C15A G17C G19C U34G, the self-cleavage was determined as 0. As for C8U C18A C31U C37U, the figure is 0.07; as for C8U C10A G19A C23U G27C U32C, 0.02; as for C8U C37G C42A, 0.02.

On to C8U C13A A16U G22C U32G C37G C45A, for which the self-cleavage was determined as 0.01. Turning to C8U G17A U28G A41U, the self-cleavage is 0.26. For C8U A24G C31A A39U the value was 0.32; for C8U C10U A41C C42A, 0.04.

C8U G22U A24U C46A: the self-cleavage is 0.09. As for C8U G19C C23U A24G G40C C46G, the figure is 0.05; as for C8U C10A C31U G36C, 0.02; as for C8U G29C G40A, 0.07. As for C8U G17U A25C G27A, the figure is 0.08; as for C8U C13A G35A C42A, 0.76; as for C8U U9A A14U C37G G40U, 0.01. As for C8U C15G A26U C37G A39C, the self-cleavage came out at 0.26.
